Assay results taken from the supplement of paper PMC10037445.
Where “and” joins values, the source holds several entries; their conditions need not be identical. Identical values can stand only once. The full ranking holds about 2,900 compounds; the median of “NF-kB SEAP reporter activity, fold change vs agonist alone” is about 0.99, and the highest 2% start at about 2.6. The list shows a part of the results.

What was measured:
RAW-Dual [1] = test: NF-kB SEAP reporter activity, fold change vs agonist alone; cytotoxicity flag (confluency mask): cytotoxic (confluency <70% of control); higher = enhanced NF-kB activity
Method in brief: (§1)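 RAW-Dual macrophages were seeded in DMEM at 50,000 cells/well in 384-well plates, given 50 nL of library stock by pin tool, and given a PRR agonist 1 h later. Plates were held at 37 °C, 5% CO2 for 20 hours, after which supernatant was read for IRF by QuantiLuc luminescence and for NF-κB by QuantiBlue absorbance at 620 nm. Reporter activity is expressed as fold change over wells that received agonist alone. A well was called cytotoxic when IncuCyte confluency fell below 70% of agonist controls in both mask sets.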

RAW-Dual [2] = test: NF-kB SEAP reporter activity, fold change vs agonist alone; higher = enhanced NF-kB activity; settings: library stock concentration (final ~1000-fold dilution): 10 mM
Method in brief: as §1

RAW-Dual [3] = test: NF-kB SEAP reporter activity, fold change vs agonist alone; cytotoxicity flag (confluency mask): not cytotoxic; higher = enhanced NF-kB activity
Method in brief: as §1

[4] = agonist: ODN 1826 (TLR9) 0.5 ug/mL
[5] = cytotoxicity flag (confluency mask): cytotoxic (confluency <70% of control), agonist: Imiquimod (TLR7) […]
[6] = cytotoxicity flag (confluency mask): cytotoxic (confluency <70% of control), agonist: MPLA (TLR4) […]
[7] = agonist: Pam2CSK4 (TLR2/6) 0.1 ug/mL
[8] = agonist: Pam3CSK4 (TLR2/1) 0.1 ug/mL
[9] = cytotoxicity flag (confluency mask): not cytotoxic, agonist: Imiquimod (TLR7) […]
[10] = cytotoxicity flag (confluency mask): not cytotoxic, agonist: MPLA (TLR4) […]

Compound: Nc1ccccc1NC(=O)c1ccc(CNc2nccc(-c3cccnc3)n2)cc1 (library stock concentration (final ~1000-fold dilution): 10 mM)
- NF-kB SEAP reporter activity (RAW-Dual [1]; agonist: LPS (TLR4) 0.1 ug/mL): 5.7
- NF-kB SEAP reporter activity (RAW-Dual [1]; [4]): 3.2

Compound: Nc1ccccc1NC(=O)c1ccc(CNc2nccc(-c3cccnc3)n2)cc1
- NF-kB SEAP reporter activity (RAW-Dual [2]; [5]): 2.7
- NF-kB SEAP reporter activity (RAW-Dual [2]; [6]): 2.58

Compound: Cn1sc(=O)n(Cc2ccccc2)c1=O (library stock concentration (final ~1000-fold dilution): 10 mM)
- NF-kB SEAP reporter activity (RAW-Dual [1]; agonist: LPS (TLR4) 0.1 ug/mL): 0.399
- NF-kB SEAP reporter activity (RAW-Dual [1]; [4]): 0.411
- NF-kB SEAP reporter activity (RAW-Dual [1]; [7]): 0.138
- NF-kB SEAP reporter activity (RAW-Dual [1]; [8]): 0.532

Compound: Cn1sc(=O)n(Cc2ccccc2)c1=O
- NF-kB SEAP reporter activity (RAW-Dual [2]; [5]): 1.28
- NF-kB SEAP reporter activity (RAW-Dual [2]; [6]): 0.662

Compound: CC(Nc1ncnc2[nH]cnc12)c1cc2ccc(F)cc2nc1-c1ccccn1 (stereo unspecified) (library stock concentration (final ~1000-fold dilution): 10 mM)
- NF-kB SEAP reporter activity (RAW-Dual [3]; agonist: LPS (TLR4) 0.1 ug/mL): 1.19
- NF-kB SEAP reporter activity (RAW-Dual [3]; [4]): 1.52
- NF-kB SEAP reporter activity (RAW-Dual [3]; [7]): 1.24
- NF-kB SEAP reporter activity (RAW-Dual [3]; [8]): 0.92

Compound: CC(Nc1ncnc2[nH]cnc12)c1cc2ccc(F)cc2nc1-c1ccccn1 (stereo unspecified)
- NF-kB SEAP reporter activity (RAW-Dual [2]; [9]): 1.06
- NF-kB SEAP reporter activity (RAW-Dual [2]; [10]): 1.08

Compound: CC(C)(CO)n1cc(C(=O)c2cncc(NC(=O)Cc3ccc(Cl)cn3)c2)c2cnc(N)nc21
- NF-kB SEAP reporter activity (RAW-Dual [2]; [9]): 1.05
- NF-kB SEAP reporter activity (RAW-Dual [2]; [10]): 1.09

Compound: CC(C)(CO)n1cc(C(=O)c2cncc(NC(=O)Cc3ccc(Cl)cn3)c2)c2cnc(N)nc21 (library stock concentration (final ~1000-fold dilution): 10 mM)
- NF-kB SEAP reporter activity (RAW-Dual [3]; agonist: LPS (TLR4) 0.1 ug/mL): 1.52
- NF-kB SEAP reporter activity (RAW-Dual [3]; [4]): 1.09
- NF-kB SEAP reporter activity (RAW-Dual [3]; [7]): 0.945
- NF-kB SEAP reporter activity (RAW-Dual [3]; [8]): 1.41

Compound: CC(C)Cn1c(=O)n(C)c(=O)c2nc[nH]c21
- NF-kB SEAP reporter activity (RAW-Dual [2]; [9]): 0.967
- NF-kB SEAP reporter activity (RAW-Dual [2]; [10]): 1.22

Compound: CC(C)Cn1c(=O)n(C)c(=O)c2nc[nH]c21 (library stock concentration (final ~1000-fold dilution): 10 mM)
- NF-kB SEAP reporter activity (RAW-Dual [3]; agonist: LPS (TLR4) 0.1 ug/mL): 1.15
- NF-kB SEAP reporter activity (RAW-Dual [3]; [4]): 1.11
- NF-kB SEAP reporter activity (RAW-Dual [3]; [7]): 0.98
- NF-kB SEAP reporter activity (RAW-Dual [3]; [8]): 1.16

Compound: COc1ccc2cc3[n+](cc2c1OC)CCc1cc2c(cc1-3)OCO2 (library stock concentration (final ~1000-fold dilution): 10 mM)
- NF-kB SEAP reporter activity (RAW-Dual [3]; agonist: LPS (TLR4) 0.1 ug/mL): 1.72 and 1.63
- NF-kB SEAP reporter activity (RAW-Dual [3]; [4]): 0.972 and 1.07
- NF-kB SEAP reporter activity (RAW-Dual [3]; [7]): 0.794 and 0.844
- NF-kB SEAP reporter activity (RAW-Dual [3]; [8]): 1.16 and 0.826

Compound: CC1COC2Cn3cc(C(=O)NCc4ccc(F)cc4F)c(=O)c(O)c3C(=O)N12 (stereo unspecified) (library stock concentration (final ~1000-fold dilution): 10 mM)
- NF-kB SEAP reporter activity (RAW-Dual [3]; agonist: LPS (TLR4) 0.1 ug/mL): 1.38
- NF-kB SEAP reporter activity (RAW-Dual [3]; [4]): 1.03
- NF-kB SEAP reporter activity (RAW-Dual [3]; [7]): 0.808
- NF-kB SEAP reporter activity (RAW-Dual [3]; [8]): 0.866

Compound: CC1COC2Cn3cc(C(=O)NCc4ccc(F)cc4F)c(=O)c(O)c3C(=O)N12 (stereo unspecified)
- NF-kB SEAP reporter activity (RAW-Dual [2]; [9]): 0.969
- NF-kB SEAP reporter activity (RAW-Dual [2]; [10]): 1.11

Compound: COc1ccc2c(c1)c(CC(=O)OCC(=O)O)c(C)n2C(=O)c1ccc(Cl)cc1
- NF-kB SEAP reporter activity (RAW-Dual [2]; [9]): 1.13
- NF-kB SEAP reporter activity (RAW-Dual [2]; [10]): 0.997

Compound: COc1ccc2c(c1)c(CC(=O)OCC(=O)O)c(C)n2C(=O)c1ccc(Cl)cc1 (library stock concentration (final ~1000-fold dilution): 10 mM)
- NF-kB SEAP reporter activity (RAW-Dual [3]; agonist: LPS (TLR4) 0.1 ug/mL): 0.942
- NF-kB SEAP reporter activity (RAW-Dual [3]; [4]): 1.29
- NF-kB SEAP reporter activity (RAW-Dual [3]; [7]): 1.14
- NF-kB SEAP reporter activity (RAW-Dual [3]; [8]): 1.04

Compound: CC1C(=O)OC2CC34C5CC(C(C)(C)C)C36C(OC(=O)C6O)OC4(C(=O)O5)C21O (stereo unspecified) (library stock concentration (final ~1000-fold dilution): 10 mM)
- NF-kB SEAP reporter activity (RAW-Dual [3]; agonist: LPS (TLR4) 0.1 ug/mL): 0.923
- NF-kB SEAP reporter activity (RAW-Dual [3]; [4]): 1.16
- NF-kB SEAP reporter activity (RAW-Dual [3]; [7]): 1.11
- NF-kB SEAP reporter activity (RAW-Dual [3]; [8]): 1.22

Compound: CC1C(=O)OC2CC34C5CC(C(C)(C)C)C36C(OC(=O)C6O)OC4(C(=O)O5)C21O (stereo unspecified)
- NF-kB SEAP reporter activity (RAW-Dual [2]; [9]): 0.973
- NF-kB SEAP reporter activity (RAW-Dual [2]; [10]): 1.09

Compound: CCCNC(C)C(=O)Nc1ccccc1C.Cl (stereo unspecified)
- NF-kB SEAP reporter activity (RAW-Dual [2]; [10]): 1.03
